Results reported in PubChem BioAssay AID1508642 (National Center for Advancing Translational Sciences (NCATS), 2021).
Among all 43,000 compounds or so, about 200 (0.47%) were called active. The inconclusive results got no clear call from the source; some entries with a clear call stand among them for comparison. The call rests on the fitted dose curve; in most records, active means well fitted cell-killing curve with a large enough effect; inconclusive means small, poorly fitted or top-dose-only effect, or effect the other way; inactive means flat fitted curve, though single readings scatter. Potencies of inconclusive entries are doubtful fits and often do not repeat.

Test: Cell viability qHTS assay in S16 Pmp22-F2sN cells; further: nearly all actives have a fitted effect of over 65% in size
Conditions: S16 Pmp22-F2sN Schwann cells (luciferase reporters placed in the Pmp22 gene) viability, CellTiter-Glo, 24 h; activity change, negative = cytotoxicity: at 57.5 µM (top of the series)
Method in brief: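 Rat S16 Schwann reporter line, 24 h treatment with library compounds delivered at 23 nL per well. Cell viability by CellTiter-Glo luminescence.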
On the % scale 0 is the no-effect control and ±100 the full control effect; potency means the concentration at half of the fitted maximal effect; tags describe the fitted curve by direction and shape.

Question: With `O=C(NCCS(=O)(=O)N1CCN(c2cccc(Cl)c2)CC1)c1cc(=O)c2ccccc2o1` as the compound, how does the Potency read?
Answer: inconclusive: 39.8 µM [cytotoxic, single point]

Question: Which Potency does the source give for `CC(C)c1ccc(Nc2c(-c3ccco3)nc3ccccn23)cc1` here?
Answer: inconclusive: 8.91 µM [cytotoxic, partial curve]

Question: For `COc1ccc(/C=C/C(=O)Nc2ccc3nc(N4CCCCC4)cc(C)c3c2)cc1OC`, which Potency is on record?
Answer: inconclusive: 39.8 µM [cytotoxic, single point]

Question: With `CCN(CCN(C)C)C(=O)C1CCN(S(=O)(=O)c2c(C)noc2/C=C/c2ccccc2F)CC1` as the compound, how does the Potency read?
Answer: inconclusive: 22.4 µM [cytotoxic, single point]

Question: Which Potency does the source give for `CC(=O)N1CCCc2cc(S(=O)(=O)N3CCN(c4cccc(C(F)(F)F)c4)CC3)ccc21` here?
Answer: inconclusive: 28.2 µM [cytotoxic, partial curve, poor fit]

Question: Which Potency does the source give for `COc1cc2cc(CNc3ccccc3)c(=O)n(CC(=O)Nc3cc(C)cc(C)c3)c2cc1OC` here?
Answer: inconclusive: 39.8 µM [cytotoxic, partial curve, poor fit]

Question: For `COc1cccc(NS(=O)(=O)c2ccc3c(c2)CCCN3C(=O)C2CCC2)c1`, which Potency is on record?
Answer: inconclusive: 31.6 µM [cytotoxic, single point]

Question: Which Potency does the source give for `CCC(=O)Nc1sc2c(c1C(=O)Nc1cccc(C)c1)CCCC2` here?
Answer: inconclusive: 5.62 µM [rising, partial curve, poor fit]

Question: Which “activity change, negative = cytotoxicity” value does the source give for `COc1ccccc1Nc1nn2c(=O)c3ccc(C(=O)NC(C)c4ccccc4)cc3nc2s1` (stereo unspecified) here?
Answer: inactive: 6.15%

Question: Which Potency does the source give for `Cc1cccc(-c2c3c(=O)n(C)c(=O)n(C)c3c3cnc4ccccc4n23)c1` here?
Answer: inconclusive: 1.12 µM [cytotoxic, partial curve, poor fit]

Question: With `CCCCNc1nc2c(c(=O)n(Cc3ccc(Cl)c(Cl)c3)c(=O)n2C)n1C` as the compound, how does the Potency read?
Answer: inconclusive: 35.5 µM [cytotoxic, single point]

Question: For `Cc1cc(Cl)ccc1NC(=O)CCn1nc(C)c2c(C)n(-c3ccccc3)nc2c1=O`, which Potency is on record?
Answer: inconclusive: 3.98 µM [cytotoxic, full curve, poor fit]

Question: With `CCCSCCCNC(=O)c1cc2n(n1)CCCN(Cc1ccc(C)cc1)C2=O` as the compound, how does the “activity change, negative = cytotoxicity” value read?
Answer: inactive: 3.08%

Question: For `CCCCN(CC)CCNC(=O)C1CCN(c2nnc(C)c3c(C)n(-c4ccc(C)cc4)nc23)CC1`, which Potency is on record?
Answer: inconclusive: 25.1 µM [cytotoxic, single point]

Question: With `CCc1c(C)nc2nncn2c1NCc1ccc(OC)cc1` as the compound, how does the Potency read?
Answer: inconclusive: 10 µM [cytotoxic, partial curve]

Question: With `Cc1ccc(Cc2c(C)nc3c(-c4ccccc4)c(C)[nH]n3c2=O)cc1` as the compound, how does the Potency read?
Answer: inconclusive: 25.1 µM [cytotoxic, partial curve, poor fit]

Question: For `CCN(CC)c1ccc(NS(=O)(=O)c2ccc(-c3coc(C)n3)cc2)c(C)c1`, which Potency is on record?
Answer: inconclusive: 28.2 µM [cytotoxic, partial curve, poor fit]

Question: Which Potency does the source give for `CCN(CC)c1cc(C)c2cc(NC(=O)/C=C/c3ccccc3OC(C)C)ccc2n1` here?
Answer: inconclusive: 2.82 µM [rising, full curve, poor fit]

Question: For `Cc1ccc(Oc2nc3ccccn3c(=O)c2/C=C(\C#N)c2nc3ccccc3s2)c(C)c1`, which Potency is on record?
Answer: inconclusive: 39.8 µM [cytotoxic, single point]

Question: Which Potency does the source give for `O=C(CCS(=O)(=O)c1nc(-c2cccs2)cc(C(F)(F)F)n1)Nc1ccc(F)c(Cl)c1` here?
Answer: inconclusive: 25.1 µM [cytotoxic, single point]

Question: For `Cc1ccc(NC(=O)C2CCN(S(=O)(=O)c3ccc4c(c3)CCCN4C(=O)C3CCC3)CC2)cc1`, which Potency is on record?
Answer: inconclusive: 35.5 µM [cytotoxic, single point]

Question: For `O=C(NCCCN1CCCCC1)c1[nH]c2ccccc2c1Sc1ccc(Cl)cc1`, which Potency is on record?
Answer: inconclusive: 39.8 µM [cytotoxic, single point]

Question: Which Potency does the source give for `CCN(CC)c1ccc(NC(=O)CN2CCN(S(=O)(=O)c3cc(Cl)ccc3OC)CC2)cc1` here?
Answer: inconclusive: 39.8 µM [cytotoxic, single point]

Question: With `COc1ccc(NC(=O)CSc2nc(-c3ccccc3)[nH]c2-c2ccccc2)cc1OC` as the compound, how does the Potency read?
Answer: inconclusive: 12.6 µM [cytotoxic, partial curve, poor fit]

Question: Which Potency does the source give for `CCOc1ccc(NC(=O)Cn2nc(SC)c(S(=O)(=O)c3ccccc3)c2N)cc1` here?
Answer: inconclusive: 39.8 µM [cytotoxic, single point]

Question: For `CCOc1ccc(NC(=O)Cn2c(=O)n(Cc3ccco3)c(=O)c3ccc(C(=O)NC4CCCC4)cc32)cc1`, which Potency is on record?
Answer: inconclusive: 0.112 µM [rising, full curve, poor fit]

Question: Which “activity change, negative = cytotoxicity” value does the source give for `CCOc1ccc(NC(=O)c2sc3nc4c(cc3c2N)CN(Cc2ccccc2)CC4)cc1` here?
Answer: inactive: -0.113%

Question: For `Cc1ccc(CN(Cc2cccn2-c2nnc(N3CCCC3=O)s2)C(=O)Nc2ccc(F)cc2)cc1`, which Potency is on record?
Answer: inconclusive: 35.5 µM [cytotoxic, single point]

Question: With `Cc1ccc(Cl)cc1N1CCN(C(=O)c2ccc3nc(N4CCC(C)CC4)sc3c2)CC1` as the compound, how does the Potency read?
Answer: inconclusive: 28.2 µM [cytotoxic, single point]

Question: For `CCOc1ccccc1CNC(=O)CCn1ccc2cc(S(=O)(=O)N3CCCCC3)ccc21`, which Potency is on record?
Answer: inconclusive: 39.8 µM [cytotoxic, single point]

Question: With `COc1ccccc1N1CCN(C(=O)c2cnc(N3CCCCC3)c3ccccc23)CC1` as the compound, how does the Potency read?
Answer: inconclusive: 10 µM [cytotoxic, partial curve]

Question: For `O=C(COc1ccc(F)cc1)NCCc1nc2ccccc2[nH]1`, which “activity change, negative = cytotoxicity” value is on record?
Answer: inactive: -0.537%

Question: With `COc1ccc(/C=C/C(=O)Nc2ccc(Cl)c(Cl)c2)cc1` as the compound, how does the “activity change, negative = cytotoxicity” value read?
Answer: inactive: -15.4%

Question: For `Cc1cc(C(=O)C(=O)Nc2nnc(C(C)C)s2)c(C)n1-c1ccccc1`, which “activity change, negative = cytotoxicity” value is on record?
Answer: inactive: -7.03%

Question: With `CC(=O)c1cc(-c2ccccc2)n(CCC(=O)NCCc2ccccc2)c1C` as the compound, how does the “activity change, negative = cytotoxicity” value read?
Answer: inactive: -11.6%

Question: For `Cc1ccc(Cc2nc3ccccc3nc2SCC(=O)NCCc2ccccc2)cc1`, which Potency is on record?
Answer: inconclusive: 6.31 µM [rising, full curve, poor fit]

Question: With `Cc1cccc(Cc2c(C)nc3nc(SCC(=O)NCc4ccc(F)cc4)nn3c2C)c1` as the compound, how does the Potency read?
Answer: inconclusive: 31.6 µM [cytotoxic, single point]

Question: With `COc1cccc(NC(=O)C(=O)NCCc2csc3nc(-c4ccccc4C)nn23)c1` as the compound, how does the “activity change, negative = cytotoxicity” value read?
Answer: inactive: 5.69%

Question: For `Cc1cc(C)c(NS(=O)(=O)c2cc(-c3cnc(C4CC4)o3)ccc2C)c(C)c1`, which “activity change, negative = cytotoxicity” value is on record?
Answer: inactive: 2.91%

Question: With `COc1cc(-c2noc(C3CC(=O)N(c4cc(C)ccc4C)C3)n2)cc(OC)c1OC` (stereo unspecified) as the compound, how does the Potency read?
Answer: inconclusive: 2 µM [cytotoxic, full curve, poor fit]

Question: Which Potency does the source give for `Cc1ccsc1CCN1C(=O)N(c2ccc(F)cc2)C(=O)C1CC(=O)Nc1ccccc1` (stereo unspecified) here?
Answer: inconclusive: 39.8 µM [cytotoxic, single point]

Question: For `Cc1ccc(CNc2ncnc3c2cnn3-c2ccc(C)cc2C)cc1`, which Potency is on record?
Answer: inconclusive: 20 µM [cytotoxic, single point]

Question: Which Potency does the source give for `CCn1cc(C(=O)NCc2ccccc2OC)c(=O)c2cc(S(=O)(=O)N3CCCCCC3)ccc21` here?
Answer: inconclusive: 20 µM [cytotoxic, single point]

Question: For `CCc1nn2c(=O)cc(COC(=O)C3CCCCC3)nc2s1`, which Potency is on record?
Answer: inconclusive: 31.6 µM [cytotoxic, single point]

Question: With `CCS(=O)(=O)c1oc(-c2ccc(F)cc2)nc1S(=O)(=O)c1ccc(Br)cc1` as the compound, how does the Potency read?
Answer: active: 2.82 µM

Question: With `CC(=O)C1=C(c2ccc(Cl)c(Cl)c2)N(C(C)=O)n2cnnc2S1` as the compound, how does the Potency read?
Answer: inconclusive: 31.6 µM [cytotoxic, single point]

Question: Which Potency does the source give for `O=C1CN(C(=O)COc2ccc(Cl)cc2)C(c2ccc(F)cc2)c2cc(Br)ccc2N1` (stereo unspecified) here?
Answer: inconclusive: 39.8 µM [cytotoxic, single point]

Question: For `CCOc1ccccc1Nc1nnc(-c2cc3cc(Cl)ccc3oc2=O)s1`, which Potency is on record?
Answer: inconclusive: 15.8 µM [cytotoxic, partial curve]

Question: For `O=C(CNC(=O)c1ccccc1F)OCc1cc(=O)n2nc(C3CC3)sc2n1`, which Potency is on record?
Answer: inconclusive: 39.8 µM [cytotoxic, single point]

Question: Which Potency does the source give for `COc1cc(OC)cc(C(=O)Nc2ccc3c(c2)OCCO3)c1` here?
Answer: inconclusive: 15.8 µM [cytotoxic, partial curve, poor fit]

Question: Which Potency does the source give for `CCOC(=O)c1c(C)[nH]c(C)c1S(=O)(=O)N1CCCC(C(=O)Nc2cccc(C)n2)C1` (stereo unspecified) here?
Answer: inconclusive: 25.1 µM [cytotoxic, single point]

Question: With `Cc1cccc(NC(=O)CSc2nc3ccccc3c3nc(CCc4c(C)n[nH]c4C)nn23)c1` as the compound, how does the Potency read?
Answer: inconclusive: 31.6 µM [cytotoxic, single point]

Question: For `CCC(C(=O)NCc1cccc(Br)c1)n1nc(C)c2c(C)n(-c3ccccc3)nc2c1=O` (stereo unspecified), which Potency is on record?
Answer: inconclusive: 39.8 µM [cytotoxic, single point]

Question: Which Potency does the source give for `O=S(=O)(Nc1cccc(F)c1)c1ccc2[nH]c3c(c2c1)CCCCC3` here?
Answer: inconclusive: 39.8 µM [cytotoxic, single point]

Question: With `CCOC(=O)c1cccc(NC(=O)CSc2nc3cc4ccccc4cc3[nH]2)c1` as the compound, how does the “activity change, negative = cytotoxicity” value read?
Answer: inactive: -5.97%

Question: Which Potency does the source give for `CC(C)(C)OC(=O)N1CCC(c2c(C(=O)N3CCC(c4ccccc4)C3)cnn2-c2ccc(Cl)cc2)CC1` (stereo unspecified) here?
Answer: inconclusive: 28.2 µM [cytotoxic, single point]

Question: For `COC(=O)c1c(SCC(=O)Nc2cccc(Cl)c2C)[nH]c2ccccc2c1=O`, which “activity change, negative = cytotoxicity” value is on record?
Answer: inactive: -6.83%

Question: With `Cc1nc2c(C(=O)NCc3ccccc3Cl)cnn2c(C)c1Cc1ccccc1` as the compound, how does the “activity change, negative = cytotoxicity” value read?
Answer: inactive: -8.19%

Question: With `Cc1ccc(CN2CCCn3nc(C(=O)NCc4cc(C)ccc4C)cc3C2=O)cc1` as the compound, how does the “activity change, negative = cytotoxicity” value read?
Answer: inactive: -28.1%

Question: Which Potency does the source give for `Cc1ccc(C)c(Nc2cc(C(=O)NCCCN(C)C3CCCCC3)c3ccccc3n2)c1` here?
Answer: inconclusive: 39.8 µM [cytotoxic, single point]

Question: With `O=C(Cn1c(=O)oc2cc(S(=O)(=O)NCc3ccccc3)ccc21)NCc1ccccc1Cl` as the compound, how does the Potency read?
Answer: inconclusive: 22.4 µM [cytotoxic, single point]
